In all, about 360,000 compounds went through this assay and about 11,000 (3.1%) were called active. Inconclusive results, whose numbers are uncertain, are shown with a selection of clear calls. Calls come from the whole dose curve; as a rule, active = well fitted inhibition curve with a large enough effect; inconclusive = small, poorly fitted or top-dose-only effect; inactive = no such curve, though single readings can be large or run the other way. Potencies of inconclusive entries are left out as doubtful fits.
These molecules were tested against Schistosoma mansoni thioredoxin glutathione reductase (TGR) (UniProt Q962Y6) (assay: qHTS Assay for the Inhibitors of Schistosoma Mansoni Peroxiredoxins). Details: purified TGR, DTNB reduction, TNB absorbance 405 nm; series mostly up to 114 µM.
Procedure, shortened: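 Kinetic colorimetric format: TGR-catalysed, NADPH-driven DTNB reduction monitored via TNB absorbance. Enzyme dispensed at 20 nM; compound exposure 15 min at room temperature before reaction start.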
`CC(C)CCNC(=S)Nc1ccc([N+](=O)[O-])cc1` was tested, and the Potency was inconclusive [inhibitor, partial curve].
With `O=C(O)/C(=C/c1ccco1)NC(=O)c1ccccc1` the Potency was inconclusive [inhibitor, partial curve].
In the case of `Cc1ccc(N2CC(c3nnc(NC(=O)c4ccco4)s3)CC2=O)cc1C` (centres undefined), the Potency is reported as “inactive”.
In the case of `S=C(NC1CCCCC1)N1CCN(c2ncccn2)CC1`, the Potency is reported as “inactive”.
In the case of `O=C(Nc1ccccc1)/C(=C\c1ccco1)NC(=O)c1ccco1`, the Potency is reported as active: 10 µM.
`O=C(CN1C(=O)C2CC=CCC2C1=O)N1CCN(c2ccc([N+](=O)[O-])cc2)CC1` (centres undefined) was tested, and the Potency was “inactive”.
In the case of `O=C(c1ccc(COc2c(F)c(F)c(F)c(F)c2F)o1)N1CCOCC1`, the Potency is reported as inconclusive [inhibitor, partial curve].
With `CN(C)CCN(C(=O)c1ccc2c(c1)CCCC2)c1nc2c(F)cccc2s1` the Potency was inconclusive [inhibitor, full curve, poor fit].
In the case of `Cc1c(C(=O)Nc2ccccc2)csc1-c1ccccc1`, the Potency is reported as “inactive”.
`CN1C(N)=NC(=O)/C1=C/c1ccccc1F` was tested, and the Potency was “inactive”.
For `Cc1cc2oc(=O)cc(CN3CCCCC3C)c2cc1Cl` (centres undefined), the Potency was “inactive”.
In the case of `CCn1c(SCC(=O)Nc2cc(F)ccc2C)nnc1-c1ccccc1O`, the Potency is reported as inconclusive [inhibitor, single point].
With `CC1Cc2cc(/C(O)=C3/C(=O)C(=O)N(CCN4CCOCC4)C3c3cccc(O)c3)ccc2O1` (centres undefined) the Potency was inconclusive [inhibitor, partial curve].
For `Cc1ccc(-c2nc(CN(C)C)cc(CN(C)C)c2O)cc1`, the Potency was inconclusive [inhibitor, single point].
For `CCN(C(=O)CCS(=O)(=O)c1ccc2c(c1)oc(=O)n2C)c1ccc(OC)cc1`, the Potency was inconclusive [inhibitor, partial curve, poor fit].
For `Clc1ccccc1C(c1nnnn1Cc1ccco1)N1CCN(Cc2ccco2)CC1` (centres undefined), the Potency was active: 31.6 µM.
`Cc1ccc(S(=O)Cc2ccc(C(=O)NC3CCCCCC3)o2)cc1` (centres undefined) was tested, and the Potency was inconclusive [inhibitor, partial curve].
With `Cc1cc(C)c2c(N)c(C(=O)c3ccc(Br)cc3)oc2n1` the Potency was inconclusive [inhibitor, full curve, poor fit].
In the case of `COc1ccc(CCn2c(=O)c3ccccc3n(CC(=O)Nc3cccc(C)c3)c2=O)cc1OC`, the Potency is reported as “inactive”.
`C/C(=N\Nc1nc(N2CCOCC2)nc(N2CCOCC2)n1)c1cccs1` was tested, and the Potency was “inactive”.
In the case of `c1ccc(-c2noc(-c3cccnc3)n2)nc1`, the Potency is reported as “inactive”.
For `O=C1OCCN/C1=C\C(=O)c1ccc(Cl)cc1`, the Potency was inconclusive [inhibitor, partial curve].
`O=C(c1ccc2c(c1)N(Cc1ccc(Cl)cc1)C(=O)c1ccccc1S2(=O)=O)N1CCC(Cc2ccccc2)CC1` was tested, and the Potency was inconclusive [inhibitor, single point].
With `COc1ccc(CNC(=O)CN(C)S(=O)(=O)c2ccc(Br)s2)cc1` the Potency was “inactive”.
For `COc1cccc2cc(C(=O)C3=C(O)C(=O)N(Cc4ccco4)C3c3cccnc3)oc12` (centres undefined), the Potency was active: 25.1 µM.
`O=S(=O)(c1ccccc1)c1ccc(NCc2ccco2)cc1` was tested, and the Potency was inconclusive [inhibitor, partial curve].
With `Cc1onc(-c2ccccc2)c1C(=O)Nc1sc2c(c1C(N)=O)CCC2` the Potency was inconclusive [inhibitor, single point].
In the case of `Cc1ccc(C)c(-n2c(SCC(=O)NCC3CCCO3)nnc2-c2ccoc2C)c1` (centres undefined), the Potency is reported as inconclusive [inhibitor, single point].
In the case of `Cc1c2cnn(-c3ccccc3)c(=O)c2c(C)n1CCCC(=O)N1CCN(C2CCCCC2)CC1`, the Potency is reported as inconclusive [inhibitor, partial curve].
With `O=C(O)c1cnn2c(C(F)(F)F)cc(-c3ccco3)nc12` the Potency was inconclusive [inhibitor, partial curve].
With `Cc1cc2c(cc1S(=O)(=O)NCc1ccccc1)OCC(=O)N2` the Potency was “inactive”.
In the case of `O=[N+]([O-])c1ccc(S(=O)(=O)N(CCCN2CCOCC2)Cc2cccs2)cc1`, the Potency is reported as inconclusive [inhibitor, partial curve].
In the case of `Nc1nnnn1CC(=O)N/N=C/c1cccs1`, the Potency is reported as “inactive”.
For `CN(C(=O)Nc1ccccc1)C1CCCc2ccccc21` (centres undefined), the Potency was “inactive”.
With `O=C(NNc1ccc([N+](=O)[O-])cc1)c1ccccc1Cl` the Potency was inconclusive [inhibitor, partial curve].
For `CCN1C[C@]2(COC)CC[C@H](OC)[C@@]34C1[C@]1(OCO[C@@]15C[C@H](OC)[C@H]1C[C@@H]3[C@@H]5[C@H]1OC)[C@@H](O)[C@H]24`, the Potency was inconclusive [inhibitor, partial curve].
With `Cc1nc(NC(=O)CCl)sc1C(=O)N(C)C` the Potency was active: 15.8 µM.
With `CCN(CC)CCN(Cc1cc2cc3c(cc2[nH]c1=O)OCCO3)C(=S)NCC(C)C` the Potency was inconclusive [inhibitor, partial curve].
For `Cc1ccc(C)c(NC(=O)CCCn2c(C)c3cnn(-c4ccccc4)c(=O)c3c2C)c1`, the Potency was inconclusive [inhibitor, partial curve].
In the case of `CCc1ccc(NC(=O)CSc2nc(C)c(C(=O)Nc3ccc(Cl)cc3)c(-c3ccc(OC)cc3)c2C#N)cc1`, the Potency is reported as inconclusive [inhibitor, single point].
With `Nc1ccc(N2CCOCC2)c2nonc12` the Potency was inconclusive [inhibitor, partial curve].
With `Cc1ccc2c(c1)C(N1CCCC1=O)CC(c1ccco1)N2` (centres undefined) the Potency was active: 10 µM.
With `CCOc1ccc(/C=N/Nc2ccccc2)cc1` the Potency was active: 25.1 µM.
With `Cc1ccc(CSCC(=O)NCc2ccc3c(c2)OCO3)cc1` the Potency was inconclusive [inhibitor, full curve, poor fit].
In the case of `C/C(=N/NS(=O)(=O)c1cccc([N+](=O)[O-])c1)c1c[nH]c2ccccc12`, the Potency is reported as active: 44.7 µM.
In the case of `CCOc1ccc(-c2nnc(SCC(=O)NCc3ccc(Cl)cc3)o2)cc1`, the Potency is reported as active: 14.1 µM.
`CCn1c(C)c(C(C)=O)c(N2CCN(c3ccc(OC)cc3)CC2)nc1=S` was tested, and the Potency was inconclusive [inhibitor, full curve].
`CCOC(=O)c1cnc2c(C(=O)OC)cccc2c1NCc1ccco1` was tested, and the Potency was inconclusive [inhibitor, partial curve].
For `Cc1nn(Cc2ccccc2)c(C)c1C=C1C(=O)NC(=S)NC1=O`, the Potency was active: 7.94 µM.
`CCN(CC)c1ccc(/C=C2\SC(=O)N(C(C)C)C2=O)o1` was tested, and the Potency was active: 1.78 µM.
In the case of `CCCCCC#CCC#CCC#CCC#CCCCC(=O)O`, the Potency is reported as active: 20 µM.
For `CC(C)OCC(O)CN1CC2C[C@@H](C1)Cn1c2cccc1=O` (some centres undefined), the Potency was inconclusive [inhibitor, partial curve].
In the case of `CN(C)c1ccc(C=Nc2ccccc2C(N)=O)cc1`, the Potency is reported as “inactive”.
For `O=C(/C=C/c1ccc(Cl)cc1)NC(=S)Nc1ccc(C(=O)O)cc1`, the Potency was active: 10 µM.
With `CCC(C)c1ccc(NC(=S)Nc2ccc(OC)cc2C)cc1` (centres undefined) the Potency was “inactive”.
For `COC(=O)c1ccccc1SC1CC(=O)N(c2ccccc2)C1=O` (centres undefined), the Potency was active: 50.1 µM.
`O=C(COC(=O)c1cncc(Br)c1)NCCC1=CCCCC1` was tested, and the Potency was inconclusive [inhibitor, partial curve].
With `C/C(=N\NC(=O)c1ccc(CSc2nc(C)cc(C)n2)cc1)c1ccco1` the Potency was active: 44.7 µM.
For `O=C1Cc2ccccc2C(=O)N1OCc1ccc(Cl)cc1`, the Potency was inconclusive [inhibitor, full curve].
In the case of `CCOc1cc(/C=N/Nc2nnc(C)n2N)ccc1O`, the Potency is reported as active: 50.1 µM.
For `CC(OC(=O)CN1C(=O)c2ccccc2C1=O)C(=O)NC1CCCCC1` (centres undefined), the Potency was “inactive”.
With `COc1ccc(NC(=O)COc2ccc3c(C)cc(=O)oc3c2)cc1S(=O)(=O)N1CCCCC1` the Potency was inconclusive [inhibitor, partial curve].
`CCC(C)n1c(SCC(=O)NCc2ccco2)nnc1-c1cccc(S(=O)(=O)N2CCOCC2)c1` (centres undefined) was tested, and the Potency was inconclusive [inhibitor, partial curve].
For `CCCOC(=O)c1ccc(NC(=O)C2C3C=CC(O3)C2C(=O)O)cc1` (centres undefined), the Potency was active: 20 µM.
For `O=C1CC(=C2c3ccccc3-c3ccccc32)C(=O)N1CCCCN1CCN(c2ccccc2)CC1`, the Potency was inconclusive [inhibitor, partial curve].
With `O=C(C1=C(O)C(=O)N(CCN2CCOCC2)C1c1ccc(F)cc1)c1cc2ccccc2o1` (centres undefined) the Potency was active: 28.2 µM.
For `O=C1COc2ccc(C(=O)C[n+]3cccc(O)c3)cc2N1`, the Potency was inconclusive [inhibitor, partial curve].
With `CC1=CC(=O)C=C(C)C1=NOc1ccccc1[N+](=O)[O-]` the Potency was active: 28.2 µM.
With `COc1ccc(NC(=O)C2CCC(CNc3c(N4CCC(C)CC4)c(=O)c3=O)CC2)cc1OC` (centres undefined) the Potency was “inactive”.
In the case of `Oc1ccccc1C1=Nc2ncnn2C(c2ccccc2)C1` (centres undefined), the Potency is reported as inconclusive [inhibitor, partial curve].
In the case of `CCOc1ccc(-c2cc(CCCC(=O)NCCc3cc(OC)c(OC)c(OC)c3)no2)cc1`, the Potency is reported as “inactive”.
For `CCOC(=O)C1CCN(C(c2ccc(C)cc2)c2c(O)cc(C)n(CCOC)c2=O)CC1` (centres undefined), the Potency was active: 7.94 µM.
In the case of `O=S1(=O)CCC(NC(=S)Nc2ccc(Cl)cc2)C1` (centres undefined), the Potency is reported as inconclusive [inhibitor, partial curve].
In the case of `O=c1cc(O)n(C2CCCCCC2)c(=O)[nH]1`, the Potency is reported as inconclusive [inhibitor, full curve, poor fit].
Note: nearly all actives have a fitted effect of over 60% in size.
Potency is the fitted concentration of half-maximal effect; tags give direction and shape of the fitted curve.
